# Laboratory results taken from PubChem BioAssay AID1030 (National Center for Advancing Translational Sciences (NCATS), 2008).
# Screen size: about 220,000 compounds; about 16,000 (7.3%) were called active. This list was built around the results that the source calls inconclusive (neither active nor inactive); the mix of calls is not that of the screen. Calls follow the shape of the dose curve; as a rule, active = well fitted inhibition curve with a large enough effect (not every such curve was filed as active); inconclusive = small, poorly fitted or top-dose-only effect, or another doubt; inactive = no such curve, though single readings can be large or run the other way. No potency is given beside an inconclusive call; the fits are too rough.
# Biological target: Aldehyde dehydrogenase 1A1 (Homo sapiens) (UniProt P00352)
# Experiment: qHTS Assay for Inhibitors of Aldehyde Dehydrogenase 1 (ALDH1A1);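 as to activity, negative = inhibition: plate controls were no enzyme wells and a reference inhibitor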
# Settings: Purified ALDH1A1, NADH fluorescence, propionaldehyde substrate; series mostly up to 75.3 µM; activity, negative = inhibition: at the top concentration
# Potency is read from the fitted curve at half-maximal effect; tags tell the direction and shape of the fitted curve.
# UniProt P00352, sequence (P00352 whole entry, looked up): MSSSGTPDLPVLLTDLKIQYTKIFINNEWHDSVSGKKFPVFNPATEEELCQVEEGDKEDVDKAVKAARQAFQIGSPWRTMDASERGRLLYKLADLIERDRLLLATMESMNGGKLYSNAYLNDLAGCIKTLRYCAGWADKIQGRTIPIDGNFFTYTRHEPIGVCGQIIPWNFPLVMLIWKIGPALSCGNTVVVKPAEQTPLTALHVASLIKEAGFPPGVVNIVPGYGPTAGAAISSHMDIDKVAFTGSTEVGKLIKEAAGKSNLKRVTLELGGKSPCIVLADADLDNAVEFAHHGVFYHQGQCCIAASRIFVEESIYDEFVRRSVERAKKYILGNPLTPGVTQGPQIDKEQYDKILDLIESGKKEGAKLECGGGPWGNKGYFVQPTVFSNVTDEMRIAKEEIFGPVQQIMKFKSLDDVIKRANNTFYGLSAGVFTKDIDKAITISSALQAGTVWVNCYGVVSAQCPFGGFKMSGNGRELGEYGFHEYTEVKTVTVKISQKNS
SMILES,"activity, negative = inhibition",Potency
COc1cc(NC(=O)c2ccccc2Cl)c(OC)cc1NC(=O)CN1CCOCC1,inactive: -8.18%,
CC(C)n1c(NCCO)nc2ccccc21,,"inconclusive [inhibitor, single point]"
CC1CCCCC1NC(=O)C1CCN(S(=O)(=O)N2CCCCCC2)CC1 (stereo not drawn),,"inconclusive [inhibitor, partial curve]"
Cc1ccc(C2N(c3ccc(F)cc3)C(=O)C3CCCN32)cc1 (stereo not drawn),inactive: 5.81%,
O=C(CCNC(=O)c1ccccc1Cl)Nc1nc(-c2ccccc2Cl)cs1,,"inconclusive [inhibitor, single point]"
COc1ccc(N2CCN(C(=O)C3CCCN(S(=O)(=O)c4cccc5cccnc45)C3)CC2)cc1 (stereo not drawn),,"inconclusive [inhibitor, single point]"
CNC(=S)Nc1ccc([N+](=O)[O-])cc1,,"inconclusive [inhibitor, single point]"
COc1ccc2c(C)cc(Sc3nnnn3-c3ccccc3)nc2c1,,"inconclusive [inhibitor, single point]"
O=c1c2ccccc2nc2n1CCN2Cc1ccc(Cl)cc1,,"inconclusive [inhibitor, partial curve]"
COC(=O)c1sc(NC(=O)CSc2nncs2)c(C(=O)OC)c1C,,"inconclusive [inhibitor, single point]"
Cc1ccccc1-n1c(-c2ccco2)n[nH]c1=S,,"inconclusive [inhibitor, single point]"
CCc1cc(=O)oc2cc(OCC(=O)N3CCCc4ccccc43)ccc12,,"inconclusive [inhibitor, partial curve]"
CCOc1ccc(C(=O)/C=C/c2cn(CN3CCN(C)CC3)c3ccccc23)cc1,,"inconclusive [inhibitor, single point]"
O=C(c1cc2c(=O)n3ccccc3nc2s1)N1CCN(Cc2ccc3c(c2)OCO3)CC1,,"inconclusive [inhibitor, partial curve]"
COc1cc(C)c(S(=O)(=O)N2CCCC2)cc1C(C)C,,"inconclusive [inhibitor, single point]"
O=S(=O)(c1ccc2c(c1)OCCO2)N1CCC(O)(c2ccc(Cl)cc2)CC1,,"inconclusive [inhibitor, partial curve]"
O=C(O)c1ccccc1-n1ncc2c1/C(=C/c1ccc(Cl)cc1)CC2,,active: 22.4 µM
CCOc1ccccc1NC(=O)CC1Nc2cc(C)c(C)cc2NC1=O (stereo not drawn),,"inconclusive [inhibitor, single point]"
CCn1c(SCc2nnc(-c3ccccc3)o2)nnc1-c1ccc(S(=O)(=O)N2CCCC2)cc1,,"inconclusive [inhibitor, single point]"
CS/C(=C\[N+](=O)[O-])Nc1ccc(F)cc1,,active: 15.8 µM
COc1ccc(C2C(C(=O)c3ccc(C)o3)=C(O)C(=O)N2c2cc(C)on2)cc1OC (stereo not drawn),inactive: -1.32%,
CCn1c(CCCc2ccc(OC)c(C)c2)n[nH]c1=S,,"inconclusive [inhibitor, full curve]"
O=C(Nc1cccc(C(F)(F)F)c1)c1cccnc1N1CCN(c2ccccc2)CC1,,"inconclusive [inhibitor, single point]"
CCOc1cc(C2NC(=O)NC(O)(C(F)(F)F)C2C(=O)c2ccccc2)ccc1OC (stereo not drawn),,"inconclusive [inhibitor, single point]"
CCOC(=O)CSc1nc(C2CC2)cc(-c2ccc(Cl)cc2)c1C#N,,active: 31.6 µM

SMILES,"activity, negative = inhibition",Potency
O=C(CC1OC(=O)c2ccccc21)c1ccco1 (stereo not drawn),,"inconclusive [inhibitor, single point]"
O=C(O)CCc1ccc(-c2ccccc2)n1Cc1ccco1,,"inconclusive [inhibitor, single point]"
Cc1ccc(-c2nnc3ccc(SCC(=O)Nc4cc(C)on4)nn23)cc1,inactive: 1.59%,
Cc1cc(C(=O)NC(CC(C)C)C(=O)O)cc(C)c1[N+](=O)[O-] (stereo not drawn),,active: 7.08 µM
CC1=[N+](C)N(c2ccccc2)C(=O)C1N=Cc1c(Cl)cccc1Cl (stereo not drawn),,"inconclusive [inhibitor, single point]"
CC(=O)N1CCN(c2cc3c(cc2F)c(=O)c(C(=O)O)cn3C2CC2)CC1,,"inconclusive [inhibitor, partial curve]"
S=C(Nc1ccc2c(c1)OCO2)Nc1ccccc1Cl,,"inconclusive [inhibitor, single point]"
CCOc1ccc(S(=O)(=O)Nc2ccccc2C(=O)NCC2CCCO2)cc1 (stereo not drawn),,"inconclusive [inhibitor, single point]"
Cc1cccc(NC(=O)c2sc3nc4c(c(-c5ccco5)c3c2N)CCC4)c1,,active: 12.6 µM
CCN1C(=O)/C(=C\c2nc3ccccc3c(=O)n2CC)c2ccccc21,,active: 14.1 µM
CCc1ccc(CCC(=O)Nc2sc(C)c(C)c2C(=O)OC)o1,,"inconclusive [inhibitor, single point]"
CN(C)S(=O)(=O)N1CCN(C(=O)c2cccs2)CC1,inactive: 5.84%,
COC(=O)C1CCN(C(c2ccc(OC)c(OC)c2)c2sc3nc(C)nn3c2O)CC1 (stereo not drawn),inactive: 1.04%,
CC(C)CN(C)Cc1c(C(=O)N2CCc3ccccc3C2)nc2ccc(Cl)cn12,,active: 7.94 µM
Cc1ccc(-n2c(=S)[nH]c3nc4c(cc3c2=O)COC(C)(C)C4)cc1,,"inconclusive [inhibitor, full curve]"
Cc1onc(-c2ccccc2Cl)c1C(=O)N1CCN(c2ccccc2)CC1,inactive: 4.35%,
Cc1nnc(C)n1/N=C/c1cc2ccccc2nc1Cl,,"inconclusive [inhibitor, single point]"
CC(C)c1ccc(/C=C/C(=O)NC(=S)Nc2ccc(CN3CCOCC3)cc2)cc1,,"inconclusive [inhibitor, single point]"
CCCn1nnc(NC(=O)/C=C/c2cc(Br)ccc2OC)n1,inactive: -4.82%,
COc1cccc([C@@H]2Oc3ccc(Br)cc3C(=O)[C@H]2OC(=O)NCCOc2ccccc2)c1,inactive: -0.241%,
O=c1c(Cc2ccc(F)cc2)c(O)ccn1Cc1ccc(F)cc1,,"inconclusive [inhibitor, single point]"
Cn1nc(-c2ccccc2)c(CO)c1Oc1ccc(F)cc1,inactive: -4.73%,
O=C(O)c1cc2nc(-c3ccccc3)cc(-c3ccccc3)n2n1,,"inconclusive [inhibitor, partial curve]"
COc1ccc(-c2nc(C)sc2C)cc1,,"inconclusive [inhibitor, single point]"
O=C(c1cccc(C(=O)N2CCc3ccccc32)n1)N1CCc2ccccc21,,"inconclusive [inhibitor, single point]"

SMILES,"activity, negative = inhibition",Potency
CN(C)S(=O)(=O)c1ccc2c(c1)/C(=C/c1cc3c([nH]1)CCCC3)C(=O)N2,,"inconclusive [inhibitor, single point]"
COc1ccc(Nc2nc(C)cc(C)c2C(N)=O)c(OC)c1,inactive: -7.22%,
O=[N+]([O-])c1ccc(O)c(/C=N/n2c(CO)nc3ccccc32)c1,,active: 3.16 µM
CC(=O)NCCNc1cc(-c2ccccc2CN(C)C)ncn1,,"inconclusive [inhibitor, single point]"
COc1ccc(CCn2c(C)cc3c(c2=O)C(c2ccncc2)C(C#N)=C(N)O3)cc1OC (stereo not drawn),,"inconclusive [inhibitor, partial curve]"
CC1(C)CC(=O)C2=C(C1)NC1=C(C(=O)c3ccccc31)C2c1ccc(Cl)cc1 (stereo not drawn),inactive: 9.16%,
Cn1cccc1C(=O)N1CCC2(CCN(C(=O)Nc3ccccc3)CC2)CC1,inactive: 2.87%,
COC(=O)C(Cc1ccc(O)cc1)NC(=O)c1ccccc1OC (stereo not drawn),,active: 28.2 µM
C=CCc1cccc(/C=N/NC(=O)CNc2ccccc2)c1O,inactive: 3.6%,
CCNC(=O)c1ccc(C2SCC(=O)N2CCc2ccccc2)cc1 (stereo not drawn),inactive: -4.33%,
Cc1nc(N2CCCCC2)sc1C(=O)c1cccc([N+](=O)[O-])c1,,active: 10 µM
COc1ccc(C)cc1NC(=O)Cn1cnc2sc(C)c(S(=O)(=O)N3CCOCC3)c2c1=O,inactive: 5.93%,
CC(c1ccncn1)N(C)Cc1nc(Cc2ccccc2F)no1 (stereo not drawn),,"inconclusive [inhibitor, single point]"
CC1=C(C(=O)OC2CCCCCCC2)C(c2cc3c(cc2Br)OCO3)CC(=O)N1 (stereo not drawn),,"inconclusive [inhibitor, full curve, poor fit]"
CC(C)C(=O)N(Cc1cc2ccccc2[nH]c1=O)C(C)(C)C,inactive: 4.32%,
C=CCOC(=O)C1=C(C)Nc2nnnn2C1c1ccc(OC)cc1OC (stereo not drawn),,"inconclusive [inhibitor, single point]"
CCOC(=O)c1ccc(S(=O)(=O)NNC(=O)c2ccc3c(c2)nc(C)n3CC)cc1,,"inconclusive [inhibitor, single point]"
COc1ccc(OCC(=O)N2CCOCC2)cc1,inactive: 5.41%,
CC(=O)NNC(=O)c1cc2c3ccccc3n(C)c2s1,,"inconclusive [inhibitor, single point]"
COc1ccc(C)cc1NC(=O)c1ccc([N+](=O)[O-])cc1[N+](=O)[O-],inactive: 11.2%,
C#CCOc1ccc(C2C3=C(COC3=O)Nc3cc4c(cc32)OCO4)cc1OC (stereo not drawn),,"inconclusive [inhibitor, partial curve]"
CCOC(=O)c1c(NC(=S)Nc2ccccc2)sc2c1CCN(C)C2,,"inconclusive [inhibitor, partial curve]"
O=C(CCCn1c(=S)[nH]c2ccccc2c1=O)N1CCCCC1,,"inconclusive [inhibitor, single point]"
